Data from the supplement of paper PMC8728848.
Some of the results follow.

Tests used:
Test in all cases: glycan array binding signal (z-score within array); higher = stronger binding
Conditions in all cases: glycan notation: IUPAC condensed, linker removed
[1] = biological target: Neu5Ac(a2-3)Gal(b1-3)GlcNAc(b1-6)GalNAc
Outline: (§1)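 Glycan array data were curated from 3228 arrays in the Consortium for Functional Glycomics database and kept only where the protein sequence was available. Glycan names were converted to IUPAC-condensed notation, and columns mapping to the same glycan were averaged. The binding signal is a within-array Z-score, averaged across arrays of the same protein sequence at different concentrations or buffers and across linkers. Negative Z-scores can be read as non-binding.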

[2] = biological target: Neu5Ac(a2-3)Gal(b1-3)GlcNAc6S
Outline: as §1

[3] = biological target: Neu5Ac(a2-3)Gal(b1-3)[Fuc(a1-4)]GlcNAc
Outline: as §1

[4] = biological target: Neu5Ac(a2-3)Gal(b1-3)[Fuc(a1-4)]GlcNAc(b1-3)Gal(b1-3)[Fuc(a1-4)]GlcNAc
Outline: as §1

[5] = biological target: Neu5Ac(a2-3)Gal(b1-3)[Fuc(a1-4)]GlcNAc(b1-3)Gal(b1-4)[Fuc(a1-3)]GlcNAc
Outline: as §1

[6] = biological target: Neu5Ac(a2-3)Gal(b1-3)[GlcNAc(b1-6)]GalNAc
Outline: as §1

[7] = biological target: Neu5Ac(a2-3)Gal(b1-3)[Neu5Ac(a2-6)]GalNAc
Outline: as §1

[8] = biological target: Neu5Ac(a2-3)Gal(b1-3)[Neu5Ac(a2-6)]GlcNAc(b1-3)[Fuc(a1-3)[Gal(b1-4)]GlcNAc(b1-6)]Gal(b1-4)Glc
Outline: as §1

[9] = biological target: Neu5Ac(a2-3)Gal(b1-3)]Neu5Ac(a2-3)Gal(b1-4)]GlcNAc
Outline: as §1

Neu5Ac(a2-3)Gal(b1-4)Glc = biological target: Neu5Ac(a2-3)Gal(b1-4)Glc
Outline: as §1

[10] = biological target: Neu5Ac(a2-3)Gal(b1-4)GlcNAc
Outline: as §1

[11] = biological target: Neu5Ac(a2-3)Gal(b1-4)GlcNAc(b1-2)Man
Outline: as §1

[12] = biological target: Neu5Ac(a2-3)Gal(b1-4)GlcNAc(b1-2)Man(a1-3)[GlcNAc(b1-4)][Neu5Ac(a2-3)Gal(b1-4)GlcNAc(b1-2)Man(a1-6)]Man(b1-4)GlcNAc(b1-4)GlcNAc
Outline: as §1

[13] = biological target: Neu5Ac(a2-3)Gal(b1-4)GlcNAc(b1-2)Man(a1-3)[Neu5Ac(a2-3)Gal(b1-4)GlcNAc(b1-2)Man(a1-6)]Man(b1-4)GlcNAc(b1-4)GlcNAc
Outline: as §1

[14] = biological target: Neu5Ac(a2-3)Gal(b1-4)GlcNAc(b1-2)Man(a1-3)[Neu5Ac(a2-3)Gal(b1-4)GlcNAc(b1-2)Man(a1-6)]Man(b1-4)GlcNAc(b1-4)[Fuc(a1-6)]GlcNAc
Outline: as §1

[15] = biological target: Neu5Ac(a2-3)Gal(b1-4)GlcNAc(b1-2)Man(a1-3)[Neu5Ac(a2-6)Gal(b1-4)GlcNAc(b1-2)Man(a1-6)]Man(b1-4)GlcNAc(b1-4)GlcNAc
Outline: as §1

[16] = biological target: Neu5Ac(a2-3)Gal(b1-4)GlcNAc(b1-2)[Neu5Ac(a2-3)Gal(b1-4)GlcNAc(b1-4)]Man(a1-3)[GlcNAc(b1-4)][Neu5Ac(a2-3)Gal(b1-4)GlcNAc(b1-2)[Neu5Ac(a2-3)Gal(b1-4)GlcNAc(b1-6)]Man(a1-6)]Man(b1-4)GlcNAc(b1-4)GlcNAc
Outline: as §1

[17] = biological target: Neu5Ac(a2-3)Gal(b1-4)GlcNAc(b1-2)[Neu5Ac(a2-3)Gal(b1-4)GlcNAc(b1-4)]Man(a1-3)[GlcNAc(b1-4)][Neu5Ac(a2-3)Gal(b1-4)GlcNAc(b1-4)Man(a1-6)]Man(b1-4)GlcNAc(b1-4)GlcNAc
Outline: as §1

[18] = biological target: Neu5Ac(a2-3)Gal(b1-4)GlcNAc(b1-2)[Neu5Ac(a2-3)Gal(b1-4)GlcNAc(b1-6)]Man(a1-6)[Neu5Ac(a2-3)Gal(b1-4)GlcNAc(b1-2)Man(a1-3)][GlcNAc(b1-4)]Man(b1-4)GlcNAc(b1-4)GlcNAc
Outline: as §1

[19] = biological target: Neu5Ac(a2-3)Gal(b1-4)GlcNAc(b1-3)Gal
Outline: as §1

[20] = biological target: Neu5Ac(a2-3)Gal(b1-4)GlcNAc(b1-3)Gal(b1-3)GlcNAc
Outline: as §1

[21] = biological target: Neu5Ac(a2-3)Gal(b1-4)GlcNAc(b1-3)Gal(b1-4)GlcNAc
Outline: as §1

[22] = biological target: Neu5Ac(a2-3)Gal(b1-4)GlcNAc(b1-3)Gal(b1-4)GlcNAc(b1-2)Man(a1-3)[Neu5Ac(a2-3)Gal(b1-4)GlcNAc(b1-3)Gal(b1-4)GlcNAc(b1-2)Man(a1-6)]Man(b1-4)GlcNAc(b1-4)GlcNAc
Outline: as §1

[23] = biological target: Neu5Ac(a2-3)Gal(b1-4)GlcNAc(b1-3)Gal(b1-4)GlcNAc(b1-3)Gal(b1-4)GlcNAc
Outline: as §1

[24] = biological target: Neu5Ac(a2-3)Gal(b1-4)GlcNAc(b1-3)Gal(b1-4)GlcNAc(b1-3)Gal(b1-4)GlcNAc(b1-2)Man(a1-3)[Neu5Ac(a2-3)Gal(b1-4)GlcNAc(b1-3)Gal(b1-4)GlcNAc(b1-3)Gal(b1-4)GlcNAc(b1-2)Man(a1-6)]GalNAc
Outline: as §1

[25] = biological target: Neu5Ac(a2-3)Gal(b1-4)GlcNAc(b1-3)Gal(b1-4)GlcNAc(b1-3)GalNAc
Outline: as §1

[26] = biological target: Neu5Ac(a2-3)Gal(b1-4)GlcNAc(b1-3)Gal(b1-4)GlcNAc(b1-3)[Neu5Ac(a2-3)Gal(b1-4)GlcNAc(b1-3)Gal(b1-4)GlcNAc(b1-6)]GalNAc
Outline: as §1

[27] = biological target: Neu5Ac(a2-3)Gal(b1-4)GlcNAc(b1-3)Gal(b1-4)GlcNAc(b1-6)[Gal(b1-3)]GalNAc
Outline: as §1

[28] = biological target: Neu5Ac(a2-3)Gal(b1-4)GlcNAc(b1-3)Gal(b1-4)[Fuc(a1-3)]GlcNAc
Outline: as §1

[29] = biological target: Neu5Ac(a2-3)Gal(b1-4)GlcNAc(b1-3)GalNAc
Outline: as §1

B1: PkBDPgamma (Plasmodium knowlesi) (protein)
chain: SAINQIFLQNNVMDKCNDKRKRGERDWDCPTEKDVCIPDRRYQLCMMEITNLVDTDTHFHSDIIFRKSYSRRRLIYDVGGRGDLLLKKYNNVYSEDLCKDIKWSLQDFGDIIMGTDMEGIGYSLVVQNNLRSIFGTGTSAELDRKKWWNDHKKDIWKAMILSVKEKNRYSAWNCKEDVQIKVEPQIYRWIREWGRDYMSEFREQRRKLNEKCEDKLYYSTMLICTLPPCNNACKSYDEWITGKKKQWDVLSTKFSSVKKAQKIETENIARAYDILKQELNGFNEVTFENEINKRDKLYNYFCVCIVQEARKNTQENVKNVGSGVESKAPSSNPINEAVKSSSGEGKVQEDSAHRSVNEGEGKSSTNEADPGSQPGAAASGGGSGGGTGGGVDLAPQMLRELQETNAALQDVRELLRQQVKEITFLKNTVMECDACGGPLDRNLPPLAPLGPTGGWSHPQFEK
In the case of B1, the “glycan array binding signal (z-score)” value [1] is reported as 0.469, the “glycan array binding signal (z-score)” value [2] is reported as -0.075 and the “glycan array binding signal (z-score)” value [3] is reported as -0.337. The “glycan array binding signal (z-score)” value [4] was -0.069, the “glycan array binding signal (z-score)” value [5] was -0.366 and the “glycan array binding signal (z-score)” value [6] was -0.266. For the same binder, the “glycan array binding signal (z-score)” value [7] was 0.139, the “glycan array binding signal (z-score)” value [8] was -0.141 and the “glycan array binding signal (z-score)” value [9] was -0.183. The “glycan array binding signal (z-score)” value (Neu5Ac(a2-3)Gal(b1-4)Glc) was 0.115, the “glycan array binding signal (z-score)” value [10] was -0.262 and the “glycan array binding signal (z-score)” value [11] was 0.266. For the same binder, the “glycan array binding signal (z-score)” value [12] was -0.62, the “glycan array binding signal (z-score)” value [13] was 0.46 and the “glycan array binding signal (z-score)” value [14] was -0.023. The “glycan array binding signal (z-score)” value [15] was 0.268, the “glycan array binding signal (z-score)” value [16] was 0.262 and the “glycan array binding signal (z-score)” value [17] was -0.279. For the same binder, the “glycan array binding signal (z-score)” value [18] was -0.229, the “glycan array binding signal (z-score)” value [19] was -0.365 and the “glycan array binding signal (z-score)” value [20] was -0.241. The “glycan array binding signal (z-score)” value [21] was 0.522, the “glycan array binding signal (z-score)” value [22] was -0.252 and the “glycan array binding signal (z-score)” value [23] was -0.185. For the same binder, the “glycan array binding signal (z-score)” value [24] was 0.477, the “glycan array binding signal (z-score)” value [25] was -0.214 and the “glycan array binding signal (z-score)” value [26] was -0.058. For the same binder, the “glycan array binding signal (z-score)” value [27] was -0.613, the “glycan array binding signal (z-score)” value [28] was 0.258 and the “glycan array binding signal (z-score)” value [29] was -0.073.
